From PubChem BioAssay AID1460 (National Center for Advancing Translational Sciences (NCATS), 2008)
“And” between values parts separate entries of the source, which are not always exact repeats. Identical values can stand only once. Out of some 270,000 compounds screened, about 5,800 (2.1%) were called active. Inconclusive means that the source gave no clear call. Such entries were picked first, then a sample of the others. Calls follow the shape of the dose curve; as a rule, active = well fitted inhibition curve with a large enough effect; inconclusive = small, poorly fitted or top-dose-only effect; inactive = flat fitted curve, though single readings scatter. A potency beside an inconclusive call is a rough fit, not a confirmed value.

Biological target: Microtubule-associated protein tau (Homo sapiens) (UniProt P10636)
UniProt P10636, sequence (P10636 whole entry, looked up): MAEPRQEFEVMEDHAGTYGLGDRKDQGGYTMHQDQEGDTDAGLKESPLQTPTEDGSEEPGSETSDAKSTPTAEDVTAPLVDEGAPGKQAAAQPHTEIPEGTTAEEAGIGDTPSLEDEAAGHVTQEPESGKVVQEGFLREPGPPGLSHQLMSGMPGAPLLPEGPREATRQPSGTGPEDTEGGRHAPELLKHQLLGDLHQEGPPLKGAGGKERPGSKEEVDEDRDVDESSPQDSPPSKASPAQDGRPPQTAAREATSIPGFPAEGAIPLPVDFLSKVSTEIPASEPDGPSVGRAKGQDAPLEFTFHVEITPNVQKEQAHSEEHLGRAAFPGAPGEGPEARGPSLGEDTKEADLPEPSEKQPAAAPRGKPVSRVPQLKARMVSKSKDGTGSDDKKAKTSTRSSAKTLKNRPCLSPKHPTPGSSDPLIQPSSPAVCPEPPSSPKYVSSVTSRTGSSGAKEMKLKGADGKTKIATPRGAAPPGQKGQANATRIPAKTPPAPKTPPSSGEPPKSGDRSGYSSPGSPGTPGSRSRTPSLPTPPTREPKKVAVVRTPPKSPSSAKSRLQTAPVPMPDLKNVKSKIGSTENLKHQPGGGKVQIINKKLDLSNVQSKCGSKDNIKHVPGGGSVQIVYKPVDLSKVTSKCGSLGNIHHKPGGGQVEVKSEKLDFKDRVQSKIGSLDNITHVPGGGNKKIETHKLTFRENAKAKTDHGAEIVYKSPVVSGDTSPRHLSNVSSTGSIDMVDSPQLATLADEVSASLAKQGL
Assay: qHTS for Inhibitors of Tau Fibril Formation, Thioflavin T Binding; also: nearly all actives have a fitted effect of over 55% in size
Conditions: recombinant tau K18 P301L (four-repeat tau fragment), heparin-induced fibrillization, ThT fluorescence; series mostly up to 57.4 µM; activity, negative = inhibition: at the top concentration
How it was run: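 In this qHTS, human K18 P301L tau is incubated with compound and heparin for 6 hr at 37 C, and Thioflavin T fluorescence then reports fibril load.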
% is scaled to controls: 0 for no effect and ±100 for the full control effect; potency is read from the fitted curve at half-maximal effect; tags tell the direction and shape of the fitted curve.

Row | Compound | Potency | activity, negative = inhibition
1 | CC(=O)c1sc(NC(=O)COc2ccc([N+](=O)[O-])cc2)nc1C | inconclusive: 25.1 µM [inhibitor, partial curve] | –
2 | C/C(Cl)=C\Cn1c(O)c(N=NC(N)=S)c2cc(Br)ccc21 | inconclusive: 11.2 µM [inhibitor, partial curve] | –
3 | Cc1cc(C)cc(C(=O)N2CCCCCC2)c1 | – | inactive: -10.2%
4 | O=C(CC1(O)C(=O)N(CCc2ccccc2)c2ccc(Br)cc21)c1ccc(F)cc1 (configuration not stated) | inconclusive: 35.5 µM [inhibitor, single point] | –
5 | CC(C)CNC(=O)CCc1c[nH]c2ccccc12 | inconclusive: 0.891 µM [inhibitor, full curve, poor fit] | –
6 | CCCCC(Sc1nc(N)c(NC(=O)c2ccc(OCC)cc2)c(=O)[nH]1)C(=O)O (configuration not stated) | inconclusive: 0.0251 µM [inhibitor, full curve, poor fit] | –
7 | CCS(=O)(=O)c1nc(S(=O)(=O)c2ccc(Cl)cc2)c(NCCOC)s1 | – | inactive: -10.6%
8 | COc1cccc(-c2cn3c(n2)sc2cc(C(=O)NCCCc4ccccc4)ccc23)c1 | – | inactive: -4.81%
9 | COc1ccc(S(=O)(=O)Cc2ccc(C(=O)NC3CC3)o2)cc1 | – | inactive: -4.32%
10 | C=CCOn1c(=O)c(-c2cccs2)[n+]([O-])c2ccccc21 | inconclusive: 10 µM [inhibitor, partial curve] | –
11 | CCOc1ccc(C(=O)N2CCSC2=S)cc1 | inconclusive: 22.4 µM [inhibitor, partial curve] | –
12 | CC(C(=O)O)N1C(=O)/C(=C/C=C/c2ccco2)SC1=S (configuration not stated) | active: 8.91 µM | –
13 | COc1cccc(-n2c(SCC(=O)c3c[nH]c4ccccc34)nc3ccccc3c2=O)c1 | inconclusive: 25.1 µM [activator, partial curve, poor fit] | –
14 | Fc1ccc(/C=C\c2nccc3c2[nH]c2ccccc23)cc1 | inconclusive: 2 µM [inhibitor, partial curve] | –
15 | COC(=O)C1=C(C)Nc2ncnn2C1c1ccccn1 (configuration not stated) | inconclusive: 0.0562 µM [activator, full curve, poor fit] | –
16 | COC(=O)C1=C(C)N=c2s/c(=C3\C(=O)Nc4ccccc43)c(=O)n2C1c1ccccc1 (configuration not stated) | inconclusive: 1.78 µM [inhibitor, full curve] | –
17 | Cc1ccc(NC(=O)c2ccccc2)cc1-n1cnnn1 | inconclusive: 14.1 µM [inhibitor, partial curve] | –
18 | CC1CCN(c2nc3c(c(=O)[nH]c(=O)n3C)n2CC(C)CSc2nnnn2-c2ccccc2)CC1 (configuration not stated) | – | inactive: -6.63%
19 | Cc1ccc2oc(-c3cccc(NC(=S)NC(=O)/C=C/c4ccco4)c3)nc2c1 | inconclusive: 10 µM [inhibitor, partial curve] | –
20 | Cc1ccc(-c2nnc(SCC(=O)NC3CCCC3)nc2-c2ccc(C)cc2)cc1 | inconclusive: 2 µM [inhibitor, partial curve] | –
21 | CSC1=N/C(=C\c2ccc(C)s2)C(=O)S1 | inconclusive: 28.2 µM [inhibitor, single point] | –
22 | O=C(C1=C[C@@H](c2ccccc2)C[C@@H](OCc2ccc(CO)cc2)O1)N1CCCCCCC1 | inconclusive: 28.2 µM [inhibitor, single point] | –
23 | COc1cc2c(=O)n(Cc3ccccc3Cl)c(=O)n(CC(=O)Nc3ccccc3)c2cc1OC | – | inactive: 10.2%

Row | Compound | Potency | activity, negative = inhibition
24 | CC(C)N1CCC(=NNc2ccc(S(=O)(=O)N3CCOCC3)cc2[N+](=O)[O-])CC1 | inconclusive: 31.6 µM [inhibitor, partial curve] | –
25 | O=C(CCC(=O)N1CC2CCCN2c2ccccc21)NCc1cccc(Cl)c1 (configuration not stated) | inconclusive: 22.4 µM [inhibitor, single point] | –
26 | C/C(=C\C(=O)c1cccnc1)Nc1ccc(O)cc1 | inconclusive: 15.8 µM [inhibitor, partial curve] | –
27 | O=c1[nH]c(Cc2ccccc2)nc2c1oc1ccccc12 | inconclusive: 25.1 µM [inhibitor, single point] | –
28 | CCOc1ccc(C2c3[nH]c4ccccc4c3CCN2Cc2cn(CC)nc2C)cc1 (configuration not stated) | inconclusive: 20 µM [inhibitor, single point] | –
29 | Cc1ccccc1OCC(=O)N/N=C/c1c(C)nn(-c2ccccc2)c1Cl | inconclusive: 11.2 µM [inhibitor, partial curve] | –
30 | O=C(CSc1nc2ccc(Cl)cc2[nH]1)c1cccs1 | – | inactive: -16.2%
31 | CC(c1ccccn1)N(Cc1ccco1)C(=S)Nc1cccc(F)c1 (configuration not stated) | – | inactive: -5.72%
32 | CC(C)c1ccc(N2C(=O)CC(Sc3ncn[nH]3)C2=O)cc1 (configuration not stated) | – | inactive: -16.1%
33 | CC1Cc2ccccc2N1S(=O)(=O)c1cnc[nH]1 (configuration not stated) | – | inactive: 9.17%
34 | O=C(Nc1sc2c(c1C(=O)O)CCC2)c1ccc(F)cc1 | inconclusive: 17.8 µM [inhibitor, partial curve] | –
35 | O=C(O)C1Nc2c(C(=O)N3CCOCC3)cccc2C2C=CCC12 (configuration not stated) | active: 14.1 µM | –
36 | N#C/C(=C\c1ccc(O)c(O)c1)C(=O)NCc1ccccc1 | inconclusive: 10 µM [inhibitor, partial curve] and inconclusive: 15.8 µM [inhibitor, partial curve] and inconclusive: 14.1 µM [inhibitor, partial curve] | –
37 | C/C(CC(=O)Nc1ccc(N(C)C)cc1)=N\NC(=O)C(=O)NCc1ccccc1 | inconclusive: 11.2 µM [inhibitor, partial curve] | –
38 | CCCCn1nnc(NC(=S)NC(=O)c2ccc(-c3cccc(Cl)c3Cl)o2)n1 | inconclusive: 5.01 µM [inhibitor, partial curve] | –
39 | COc1ccc(Cl)cc1NC(=S)N1CCN(S(C)(=O)=O)CC1 | – | inactive: -2.32%
40 | C/C(=N\Nc1ccccn1)c1ccc(C(C)C)cc1 | inconclusive: 15.8 µM [inhibitor, partial curve] | –
41 | N#C/C(=C(/O)c1ccco1)c1nc2ccccc2s1 | inconclusive: 14.1 µM [inhibitor, partial curve] and inconclusive: 11.2 µM [inhibitor, partial curve] | –
42 | Cc1cc2c(cc1C)N(C(=O)CSC1=NCCS1)C(C)(C)c1ssc(=S)c1-2 | inconclusive: 11.2 µM [inhibitor, partial curve] | –
43 | Cc1ccccc1N1CCN(CCCOc2ccc3c(C)cc(=O)oc3c2)CC1 | inconclusive: 12.6 µM [inhibitor, partial curve] | –
44 | Cc1ccc(C(O)(c2ccccc2)c2ccccc2C(C)N(C)C)c(C)c1 (configuration not stated) | inconclusive: 25.1 µM [inhibitor, single point] | –
45 | CCCNC(=O)c1c(C)nn(-c2cccc(C)c2)c1-n1cccc1 | – | inactive: -2.29%
46 | CC(=O)/C(N=Nc1ccc(SC(F)F)cc1)=C(\C)O | inconclusive: 7.08 µM [inhibitor, partial curve] | –

Row | Compound | Potency | activity, negative = inhibition
47 | COc1cccc(-c2cc(NCc3cccs3)ncn2)c1 | – | inactive: -13.1%
48 | COc1cc(OC)cc(-c2nc3nc(C)c(CCC(=O)Nc4ccc(F)cc4F)c(C)n3n2)c1 | inconclusive: 15.8 µM [inhibitor, partial curve] | –
49 | Cc1onc(-c2c(F)cccc2Cl)c1C(=O)NC(=S)NC1CCSC1=O (configuration not stated) | – | inactive: 1.61%
50 | CCc1nn(C(C)C(=O)N2CCN(c3cccc(C(F)(F)F)c3)CC2)c(=O)c2cc3occc3n12 (configuration not stated) | inconclusive: 25.1 µM [inhibitor, single point] | –
51 | CCC1=C(OC(=O)N(CC)CC)N2C(=O)OC(=NCCc3c[nH]c4ccccc34)[C@]2(C)[C@H]2C1=CC[C@H]1C(=O)N(C)C(=O)[C@H]12 | inconclusive: 39.8 µM [inhibitor, single point] | –
52 | COc1cccc(C(=O)N2c3nc(-c4ccco4)nn3C3(CCCCC3)[C@@H]3CCCC[C@@H]32)c1 | – | inactive: -8.53%
53 | O=C(NCCc1ccccc1Cl)c1ccc2c(c1)nc1n2CCOC1 | inconclusive: 7.94 µM [inhibitor, partial curve] | –
54 | O=C(CSc1nc2c(c(=O)[nH]1)CN(Cc1ccc(F)cc1)CC2)Nc1ccccc1Cl | – | inactive: -3.93%
55 | CCOC(=O)Cc1csc(NC(=O)c2cc3c(s2)CCCC3)n1 | inconclusive: 11.2 µM [inhibitor, partial curve] | –
56 | CSc1cnn(Cc2ccccc2)c(=O)c1SCc1ccccc1 | inconclusive: 20 µM [inhibitor, single point] | –
57 | CCc1ccc(C2c3[nH]c4ccccc4c3CCN2C(=O)CN2CCN(CC)CC2)cc1 (configuration not stated) | inconclusive: 35.5 µM [inhibitor, partial curve] | –
58 | O=C1NC(=Nc2ccc3ccccc3c2)S/C1=C/c1ccco1 | active: 14.1 µM | –
59 | C=CCn1c(-c2csc3c2CCC(C)C3)n[nH]c1=S (configuration not stated) | – | inactive: -15.4%
60 | O=C1C(c2cc(=O)c3ccccc3[nH]2)=C(O)c2ccccc21 | active: 4.47 µM | –
61 | CCN1C(=O)/C(=C2/C=CC=CN2C)OC1=S | – | inactive: -10.6%
62 | CCOC(=O)C1=C(N)OC2=C(C(=O)CC(C)(C)C2)C1c1cccs1 (configuration not stated) | inconclusive: 22.4 µM [inhibitor, single point] | –
63 | O=C(O)/C=C/C(=O)NNC(=O)c1cc(-c2ccccc2)n[nH]1 | inconclusive: 7.08 µM [inhibitor, partial curve] | –
64 | CCOC(=O)c1c(C)c(C(=O)Nc2ccc3c(c2)OCO3)c(C)n1C | inconclusive: 44.7 µM [inhibitor, single point] | –
65 | Nc1ccc(N2CCOCC2)c(S(=O)(=O)Nc2cc(Cl)ccc2Cl)c1 | inconclusive: 35.5 µM [inhibitor, partial curve] | –
66 | O=C(Nc1nc(-c2ccccc2)cs1)c1cccc([N+](=O)[O-])c1 | inconclusive: 15.8 µM [inhibitor, partial curve] | –
67 | O=C(Cc1ncc(C(F)(F)F)cc1Cl)N1CCN(c2cccc(Cl)c2)CC1 | inconclusive: 25.1 µM [inhibitor, partial curve] | –
